The BET-seq Pho4 binding data (Le et al. 2018)
Some of the results follow. The energies were worked out here from pooled read counts, against the library average; single values are noisy.

Each sequence was assayed against T1, Pho4 (S. cerevisiae) (UniProt P07270) (assay: relative binding free energy (BET-seq); higher = weaker binding). Conditions: reference: library average.
T1 sequence: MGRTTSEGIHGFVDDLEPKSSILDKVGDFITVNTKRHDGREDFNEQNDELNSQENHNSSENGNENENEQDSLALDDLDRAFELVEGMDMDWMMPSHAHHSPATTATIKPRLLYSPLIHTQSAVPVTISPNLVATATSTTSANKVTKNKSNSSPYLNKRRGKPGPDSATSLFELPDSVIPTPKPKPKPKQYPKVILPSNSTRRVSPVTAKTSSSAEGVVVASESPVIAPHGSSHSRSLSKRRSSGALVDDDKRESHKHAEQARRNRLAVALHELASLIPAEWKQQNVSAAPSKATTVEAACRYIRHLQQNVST
TTGTTCACGTGTGAGC was tested, and the “relative binding free energy” value was 0.32 kcal/mol.
For ACGGGCACGTGTGGAA, the “relative binding free energy” value was -0.03 kcal/mol.
TATTTCACGTGGGGAC was tested, and the “relative binding free energy” value was 0.21 kcal/mol.
With CAGGTCACGTGTGGGA the “relative binding free energy” value was 0.03 kcal/mol.
In the case of TCGTGCACGTGGGTAG, the “relative binding free energy” value was -0.15 kcal/mol.
With GTTATCACGTGTTCTA the “relative binding free energy” value was 0.11 kcal/mol.
With TTTAACACGTGGTGGC the “relative binding free energy” value was -0.03 kcal/mol.
With TTAGTCACGTGATCTA the “relative binding free energy” value was 0.13 kcal/mol.
GATTGCACGTGGAAGT was tested, and the “relative binding free energy” value was 0.21 kcal/mol.
In the case of GGTTTCACGTGCATTA, the “relative binding free energy” value was 0.42 kcal/mol.
With TGTAGCACGTGGTTTT the “relative binding free energy” value was -0.09 kcal/mol.
For TGTTTCACGTGGGAGT, the “relative binding free energy” value was 0.19 kcal/mol.
In the case of TGCGGCACGTGTGTGT, the “relative binding free energy” value was -0.17 kcal/mol.
In the case of GATTTCACGTGAGGTG, the “relative binding free energy” value was 0.59 kcal/mol.
In the case of TACATCACGTGGGGAG, the “relative binding free energy” value was 0.07 kcal/mol.
TGTAACACGTGCGTGT was tested, and the “relative binding free energy” value was -0.1 kcal/mol.
In the case of ATTTACACGTGAGTGT, the “relative binding free energy” value was 0.26 kcal/mol.
With ATTCACACGTGATGGT the “relative binding free energy” value was 0.14 kcal/mol.
For GTGTCCACGTGTTTAG, the “relative binding free energy” value was 0.15 kcal/mol.
TGGAGCACGTGGATAT was tested, and the “relative binding free energy” value was -0.09 kcal/mol.
TGTACCACGTGGGGAT was tested, and the “relative binding free energy” value was -0.17 kcal/mol.
With ATTTACACGTGTTCAT the “relative binding free energy” value was -0.04 kcal/mol.
With GTTTGCACGTGTGCAA the “relative binding free energy” value was -0.03 kcal/mol.
With TAGAACACGTGAGAGG the “relative binding free energy” value was 0.35 kcal/mol.
In the case of AGATTCACGTGCTTTA, the “relative binding free energy” value was 0.22 kcal/mol.
With GCAGACACGTGGGTTT the “relative binding free energy” value was 0.05 kcal/mol.
With CTGGGCACGTGGGGCC the “relative binding free energy” value was -0.32 kcal/mol.
For TGTGTCACGTGAAGGT, the “relative binding free energy” value was 0.31 kcal/mol.
In the case of TCAGACACGTGTGGTA, the “relative binding free energy” value was 0.07 kcal/mol.
In the case of TATGACACGTGTGGAA, the “relative binding free energy” value was 0.06 kcal/mol.
For TTGAACACGTGCTTGT, the “relative binding free energy” value was -0.01 kcal/mol.
With GGAATCACGTGTCGTT the “relative binding free energy” value was 0.19 kcal/mol.
With GGTCTCACGTGTAATG the “relative binding free energy” value was 0.16 kcal/mol.
With TAGCTCACGTGGAGTT the “relative binding free energy” value was 0.27 kcal/mol.
For CGATGCACGTGTAGGT, the “relative binding free energy” value was 0.02 kcal/mol.
In the case of TTACTCACGTGGGGTT, the “relative binding free energy” value was 0.09 kcal/mol.
For GTAGTCACGTGTTTTA, the “relative binding free energy” value was 0.24 kcal/mol.
In the case of GCGAGCACGTGTTTTG, the “relative binding free energy” value was 0.02 kcal/mol.
With TGGGGCACGTGGCTAT the “relative binding free energy” value was -0.08 kcal/mol.
In the case of GTGGTCACGTGTGGAA, the “relative binding free energy” value was 0.02 kcal/mol.
In the case of AAGTTCACGTGGTAAT, the “relative binding free energy” value was 0.27 kcal/mol.
With TGAGTCACGTGTCTGG the “relative binding free energy” value was 0.07 kcal/mol.
With GGTTTCACGTGCGCTA the “relative binding free energy” value was 0.33 kcal/mol.
With GTGGTCACGTGGGTGC the “relative binding free energy” value was 0.05 kcal/mol.
For AACGGCACGTGAGAGG, the “relative binding free energy” value was 0.2 kcal/mol.
With TTGTGCACGTGATTCT the “relative binding free energy” value was 0.16 kcal/mol.
For GTATCCACGTGATGGT, the “relative binding free energy” value was 0.21 kcal/mol.
With TTTGACACGTGTTCTA the “relative binding free energy” value was -0.06 kcal/mol.
For GGGTACACGTGGTATG, the “relative binding free energy” value was -0.07 kcal/mol.
With ATGATCACGTGGGCAT the “relative binding free energy” value was 0.05 kcal/mol.
In the case of TCGTGCACGTGTTGTT, the “relative binding free energy” value was 0.06 kcal/mol.
In the case of CTTGTCACGTGTGTTG, the “relative binding free energy” value was 0.16 kcal/mol.
With TGGGTCACGTGCAGTT the “relative binding free energy” value was 0.13 kcal/mol.
With CTGAGCACGTGGGTCG the “relative binding free energy” value was -0.17 kcal/mol.
For ACGGGCACGTGAATGT, the “relative binding free energy” value was 0.03 kcal/mol.
With AGAAGCACGTGTCTGG the “relative binding free energy” value was -0.01 kcal/mol.
With GGCGGCACGTGTAGTA the “relative binding free energy” value was 0.01 kcal/mol.
For GGTTGCACGTGCCATG, the “relative binding free energy” value was 0.01 kcal/mol.
In the case of AGTGGCACGTGAGCGT, the “relative binding free energy” value was -0.01 kcal/mol.
In the case of TTGTACACGTGCGGGA, the “relative binding free energy” value was 0.08 kcal/mol.
TGATTCACGTGTTGCT was tested, and the “relative binding free energy” value was 0.32 kcal/mol.
With GTCGTCACGTGGTGCA the “relative binding free energy” value was 0.09 kcal/mol.
For TGGTACACGTGAAGAA, the “relative binding free energy” value was 0.27 kcal/mol.
For TTATCCACGTGGATGT, the “relative binding free energy” value was -0.01 kcal/mol.
With AATGTCACGTGGTAAA the “relative binding free energy” value was -0.06 kcal/mol.
With GTAGTCACGTGGCTTG the “relative binding free energy” value was 0.09 kcal/mol.
TTAGGCACGTGGCAAG was tested, and the “relative binding free energy” value was -0.26 kcal/mol.
TATCGCACGTGTCGGG was tested, and the “relative binding free energy” value was 0.04 kcal/mol.
TTGTTCACGTGATTAA was tested, and the “relative binding free energy” value was 0.33 kcal/mol.
In the case of GGAAACACGTGGGTTG, the “relative binding free energy” value was -0.19 kcal/mol.
In the case of GAAGGCACGTGGGTTA, the “relative binding free energy” value was -0.21 kcal/mol.
With GTTTGCACGTGACGGG the “relative binding free energy” value was 0.16 kcal/mol.
In the case of ATGTCCACGTGGGCTT, the “relative binding free energy” value was -0.07 kcal/mol.
For AAGGGCACGTGAATTG, the “relative binding free energy” value was 0.13 kcal/mol.
For TAAGTCACGTGCGGTA, the “relative binding free energy” value was 0.11 kcal/mol.
GGTTACACGTGATAGG was tested, and the “relative binding free energy” value was 0.26 kcal/mol.
GAGGACACGTGGGTCG was tested, and the “relative binding free energy” value was 0.05 kcal/mol.
For GGGTTCACGTGTTAAG, the “relative binding free energy” value was 0.38 kcal/mol.
For GTGGACACGTGGTTTG, the “relative binding free energy” value was 0.01 kcal/mol.
With TTGTCCACGTGATGGT the “relative binding free energy” value was 0.22 kcal/mol.
In the case of CAGTCCACGTGTGGGG, the “relative binding free energy” value was -0.04 kcal/mol.
For GTGAACACGTGGGTCT, the “relative binding free energy” value was 0.11 kcal/mol.
In the case of TTGGGCACGTGCATGT, the “relative binding free energy” value was -0.19 kcal/mol.
With ATATGCACGTGATGGC the “relative binding free energy” value was 0.02 kcal/mol.
In the case of TTATTCACGTGGCGTT, the “relative binding free energy” value was 0.17 kcal/mol.
For AGGCGCACGTGATTTG, the “relative binding free energy” value was -0.02 kcal/mol.
AAACGCACGTGATGGG was tested, and the “relative binding free energy” value was 0.02 kcal/mol.
With AGGGGCACGTGGCAGA the “relative binding free energy” value was -0.24 kcal/mol.
GGGAGCACGTGTGTCG was tested, and the “relative binding free energy” value was 0.07 kcal/mol.
TGGAGCACGTGGGCTC was tested, and the “relative binding free energy” value was -0.22 kcal/mol.
With ATGTACACGTGTTGAA the “relative binding free energy” value was 0.04 kcal/mol.
For GGAGGCACGTGCGAGG, the “relative binding free energy” value was -0.1 kcal/mol.
AGTATCACGTGGTAAA was tested, and the “relative binding free energy” value was 0.15 kcal/mol.
TGGTGCACGTGAGATG was tested, and the “relative binding free energy” value was 0.21 kcal/mol.
For ATTGACACGTGGGGGT, the “relative binding free energy” value was -0.07 kcal/mol.
In the case of GTCGTCACGTGTTTAG, the “relative binding free energy” value was 0.18 kcal/mol.
With ATCATCACGTGGTGGA the “relative binding free energy” value was 0.14 kcal/mol.
GAGGGCACGTGCGAGT was tested, and the “relative binding free energy” value was -0.04 kcal/mol.
With TGGCTCACGTGAGGAT the “relative binding free energy” value was 0.23 kcal/mol.
In the case of CTTGGCACGTGGCTCG, the “relative binding free energy” value was -0.17 kcal/mol.
In the case of TAGGTCACGTGTATAA, the “relative binding free energy” value was 0.02 kcal/mol.
With GGGACCACGTGGTTAG the “relative binding free energy” value was 0.07 kcal/mol.
With ATGGTCACGTGGCGTA the “relative binding free energy” value was -0.03 kcal/mol.
In the case of TTGGCCACGTGATTGG, the “relative binding free energy” value was 0.04 kcal/mol.
In the case of TGTTGCACGTGACGAT, the “relative binding free energy” value was 0.06 kcal/mol.
With TGAAACACGTGCGGTT the “relative binding free energy” value was 0.05 kcal/mol.
In the case of TATCGCACGTGTTGGG, the “relative binding free energy” value was -0.05 kcal/mol.
For AGCTTCACGTGGGGGA, the “relative binding free energy” value was 0.09 kcal/mol.
For TATAGCACGTGTAAAT, the “relative binding free energy” value was 0.08 kcal/mol.
In the case of CGATTCACGTGTCGGT, the “relative binding free energy” value was 0.38 kcal/mol.
With CGAGACACGTGGGGAT the “relative binding free energy” value was -0.08 kcal/mol.
With TGATTCACGTGCGGTC the “relative binding free energy” value was 0.3 kcal/mol.
GTAAGCACGTGGAGGC was tested, and the “relative binding free energy” value was 0.06 kcal/mol.
ATTGGCACGTGTTACA was tested, and the “relative binding free energy” value was -0.15 kcal/mol.
GTGGTCACGTGTAAAG was tested, and the “relative binding free energy” value was 0.21 kcal/mol.
ATGCGCACGTGTGTTA was tested, and the “relative binding free energy” value was -0.14 kcal/mol.
GATAGCACGTGTGTGG was tested, and the “relative binding free energy” value was -0.06 kcal/mol.
With CGCGGCACGTGGGTGG the “relative binding free energy” value was -0.19 kcal/mol.
For GTCTGCACGTGGATGT, the “relative binding free energy” value was 0.12 kcal/mol.
In the case of GAAAGCACGTGGGGGG, the “relative binding free energy” value was -0.18 kcal/mol.
For GATAGCACGTGGTGGT, the “relative binding free energy” value was -0.06 kcal/mol.
With ATATGCACGTGGCATT the “relative binding free energy” value was -0.2 kcal/mol.
With GGGGACACGTGGTTGT the “relative binding free energy” value was 0.02 kcal/mol.
In the case of GAGGTCACGTGATGGC, the “relative binding free energy” value was 0.46 kcal/mol.
With TAGGTCACGTGTGAGT the “relative binding free energy” value was 0.16 kcal/mol.
AAGGTCACGTGTACGG was tested, and the “relative binding free energy” value was 0.2 kcal/mol.
TGGTGCACGTGAAGGG was tested, and the “relative binding free energy” value was 0.33 kcal/mol.
TGTTGCACGTGATGAT was tested, and the “relative binding free energy” value was 0.23 kcal/mol.
GCGTGCACGTGCGTGG was tested, and the “relative binding free energy” value was -0.14 kcal/mol.
For TTGGACACGTGAGATA, the “relative binding free energy” value was 0.29 kcal/mol.
TAGTGCACGTGCGAAT was tested, and the “relative binding free energy” value was 0.02 kcal/mol.
GTTTGCACGTGTTACT was tested, and the “relative binding free energy” value was 0.11 kcal/mol.
CTGTACACGTGAGCGG was tested, and the “relative binding free energy” value was 0.25 kcal/mol.
GTTGACACGTGAGGAA was tested, and the “relative binding free energy” value was 0.34 kcal/mol.
For CAATACACGTGGAGGG, the “relative binding free energy” value was 0.1 kcal/mol.
For GAGGGCACGTGAGGAT, the “relative binding free energy” value was 0.18 kcal/mol.
With TGTTTCACGTGGTGTA the “relative binding free energy” value was 0.23 kcal/mol.
In the case of GATGGCACGTGGCATG, the “relative binding free energy” value was -0.09 kcal/mol.
With GGTCACACGTGTGGGA the “relative binding free energy” value was 0.06 kcal/mol.
For TCTGGCACGTGAGTAT, the “relative binding free energy” value was 0.02 kcal/mol.
For GGAATCACGTGCTTTT, the “relative binding free energy” value was 0.17 kcal/mol.
With CTAGTCACGTGGAGGC the “relative binding free energy” value was 0.14 kcal/mol.
For CTTAGCACGTGTTTAA, the “relative binding free energy” value was 0.02 kcal/mol.
ATTTGCACGTGAGTAA was tested, and the “relative binding free energy” value was 0.37 kcal/mol.
In the case of TGTGGCACGTGGGTGA, the “relative binding free energy” value was -0.27 kcal/mol.
With GGGTTCACGTGGATCG the “relative binding free energy” value was 0.38 kcal/mol.
